Data reported in PMC4336329 (PLoS ONE, 2015).
About 2,200 (0.71%) of roughly 310,000 compounds showed an effect of 50% or more. The effect is printed as a negative number. Some of the results follow.

molecular target: human ether-à-go-go-related gene (hERG) potassium channel (human, UniProt Q12809); test: primary screen, population patch clamp on CHO cells stably expressing hERG
Sequence (Q12809 whole entry, looked up): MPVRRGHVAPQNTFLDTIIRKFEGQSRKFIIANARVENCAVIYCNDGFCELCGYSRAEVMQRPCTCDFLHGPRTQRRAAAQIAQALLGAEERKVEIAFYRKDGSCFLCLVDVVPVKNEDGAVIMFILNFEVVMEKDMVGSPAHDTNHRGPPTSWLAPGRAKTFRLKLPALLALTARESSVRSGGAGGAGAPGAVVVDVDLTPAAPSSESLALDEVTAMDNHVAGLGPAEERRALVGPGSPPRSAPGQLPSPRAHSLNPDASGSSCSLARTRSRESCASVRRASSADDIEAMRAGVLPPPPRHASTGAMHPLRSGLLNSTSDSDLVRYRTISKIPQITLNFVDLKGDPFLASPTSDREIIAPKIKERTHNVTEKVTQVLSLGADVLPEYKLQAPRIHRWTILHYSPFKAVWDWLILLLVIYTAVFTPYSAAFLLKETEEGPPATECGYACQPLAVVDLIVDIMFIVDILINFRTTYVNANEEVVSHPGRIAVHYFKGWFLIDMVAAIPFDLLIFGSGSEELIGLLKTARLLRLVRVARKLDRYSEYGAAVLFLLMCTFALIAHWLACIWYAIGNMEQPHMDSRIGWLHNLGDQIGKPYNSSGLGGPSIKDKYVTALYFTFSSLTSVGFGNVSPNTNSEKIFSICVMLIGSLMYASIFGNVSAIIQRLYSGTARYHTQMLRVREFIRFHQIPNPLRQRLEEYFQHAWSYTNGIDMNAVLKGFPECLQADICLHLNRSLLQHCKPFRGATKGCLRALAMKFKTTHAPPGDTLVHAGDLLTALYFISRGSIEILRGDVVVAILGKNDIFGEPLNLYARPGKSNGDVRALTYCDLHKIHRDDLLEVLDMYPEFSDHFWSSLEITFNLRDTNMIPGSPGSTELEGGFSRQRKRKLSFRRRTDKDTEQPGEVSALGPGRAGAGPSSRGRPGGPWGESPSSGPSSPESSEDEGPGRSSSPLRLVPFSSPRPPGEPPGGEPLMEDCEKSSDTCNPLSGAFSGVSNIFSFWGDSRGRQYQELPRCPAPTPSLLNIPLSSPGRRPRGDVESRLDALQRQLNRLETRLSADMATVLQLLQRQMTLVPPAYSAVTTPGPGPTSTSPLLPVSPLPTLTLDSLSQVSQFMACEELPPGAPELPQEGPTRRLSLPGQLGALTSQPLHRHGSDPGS

SMILES | hERG current change (%, negative = inhibition) at 1uM
CN(C)C(CNC(=O)C1CCN(C(=O)/C=C/c2ccccc2)CC1)c1ccccc1 (centres unmarked) | 11.1%
Cc1onc(-c2ccccc2)c1C(=O)OCC(=O)N1CCC(C)CC1 | 0.342%
O=C(NCc1cn2ccsc2n1)c1cccc(C(F)(F)F)c1 | 14.5%
CCOC(=O)c1[nH]cnc1C(=O)Nc1ccccc1C | 14.2%
CCc1ccc(S(=O)(=O)n2c(C)nc3ccccc32)cc1 | 18.1%
COc1ccc(/C=C2/SC(=O)N(CC(=O)NCCC(C)C)C2=O)cc1OC | 7.05%
Nc1[nH+]c(-c2ccc([N+](=O)[O-])cc2)cs1.[Br-] | 13.9%
Cc1cccc(-c2nc3c(s2)CCc2onc(-c4ccc(Br)cc4)c2-3)c1 | 7.82%
O=C(Nc1ccccc1F)N1CCCC1c1cccnc1 (centres unmarked) | 6.73%
CC12CN3CC(C)(CN(C1)C3c1ccc3c(c1)OCO3)C2 (centres unmarked) | 15%
Cc1ccc(C)c(NC(=O)CN(C)C(=O)c2ccccc2OCc2c(C)noc2C)c1 | 1.9%
O=C(Cc1ccccc1)N/N=C/c1cccs1 | 11.7%
O=C(CN(Cc1ccccc1Cl)C(=O)c1ccc(CN2CCOCC2)o1)NCc1ccccc1 | -15.4%
CCc1ccc(CN2CCC(n3nccc3NC(=O)Cc3ccccc3)CC2)o1 | 1.07%
Cc1ccc(C)c(C(=O)COC(=O)CN2C(=O)C3C4C=CC(C4)C3C2=O)c1 (centres unmarked) | 17.8%
CSc1ccc(CNCc2ccco2)cc1.Cl | 7.26%
O=c1cc(COn2nnc3ccc(C(F)(F)F)cc32)nc2sccn12 | 12.3%
O=C(NC1=NCCS1)c1ccccc1Br | 14.2%
Cc1ccc(NC(=O)CSc2ncnc3ccccc23)cc1S(=O)(=O)N1CCCCC1 | 0.777%
CCc1c(C)nc(SCC(=O)N2C(C)CCCC2C)[nH]c1=O (centres unmarked) | 20.8%
COc1ccc(CNC(=O)c2cc(S(=O)(=O)N3CCCC3)cn2C)cc1 | 12.7%
C/C(=N\NC(=O)c1ccc(Cn2cc([N+](=O)[O-])cn2)o1)c1cccc(NC(=O)c2cccnc2)c1 | 14%
CCOC(=O)C1(CC2CC2)CCN(S(=O)(=O)/C=C/c2ccccc2)CC1 | 7.93%

SMILES | hERG current change (%, negative = inhibition) at 1uM
Br.COc1ccc(-c2csc(Nc3ccc(O)cc3)n2)cc1 | 10.5%
COC(=O)C(NC(C)=O)(Nc1sc2c(c1C(N)=O)CCCC2)C(F)(F)F (centres unmarked) | 10.4%
CN(C)C(=O)C1C2NC(=S)N(c3ccccc3)C1(C)Oc1ccccc12 (centres unmarked) | 2.05%
CCCOc1ccc(Cl)cc1CN1CCOCC1.Cl | 3.67%
CCCn1c(Nc2nc3ccccc3n2C)nc2ccccc21 | 14.2%
CN(C)c1ccc(C(=S)N2CCCCC2)cc1Br | 14.1%
CCOC(=O)C1CCN(C(=O)C2(NC(=O)Nc3ccccc3C)CCCCC2)CC1 | 18.6%
N#Cc1c(Cn2cncn2)nc(=O)n(-c2ccccc2)c1N | 16.9%
COc1cccc(C2c3[nH]c4ccccc4c3CCN2Cc2ncc[nH]2)c1 (centres unmarked) | -4.72%
O=C1COc2ccc(S(=O)(=O)N3CCN(c4cccc(C(F)(F)F)c4)CC3)cc2N1 | 10.8%
O=C(Nc1c2c(nc3c1CCC3)CCCC2)c1ccccn1 | 3.08%
COc1ccc(CNC(=S)N/N=C(/C)c2ccccc2)cc1 | 3.45%
COc1ccc(OCCCC(=O)Nc2cc([N+](=O)[O-])ccc2C)cc1 | 7.16%
Cc1cc(C)c(S(=O)(=O)Nc2ccc[nH]c2=O)c(C)c1 | 6.12%
Cc1ccc(CNC(=O)Cc2cccs2)cc1 | 13.1%
CC(C)NC(=O)C12CC3CC(C1)CC(n1cnc(Cl)n1)(C3)C2 | 4.43%
CC(C)NS(=O)(=O)c1ccc(CCC(=O)N2CCCCC2)cc1 | 11.5%
Cc1cc(NS(=O)(=O)c2ccc(NC(=S)NC(=O)c3ccc(Cl)cc3Cl)cc2)no1 | -5.55%
O=C1c2c(O)cc(O)cc2O[C@H](c2ccc(O)c(O)c2)[C@@H]1O | 17%
CC(C)C[C@H]1COCCS(=O)(=O)N1Cc1cccc(C(F)(F)F)c1 | 5.39%
c1ccc(-c2cnc(CSc3nnc4ccccn34)o2)cc1 | 7.23%
O=C(NC1(Cc2ccccc2)CCN(CCc2cccs2)C1=O)c1ccccc1 (centres unmarked) | 6.99%
Cc1ccc(S(=O)(=O)N[C@H](C(=O)N2CCC(C(=O)N[C@@H](CCC(N)=O)C(=O)O)CC2)C(C)C)cc1 | 10.6%

SMILES | hERG current change (%, negative = inhibition) at 1uM
C/C(=N\OCc1ccc(C#N)cc1)c1cc2ccccc2o1 | 2.29%
CC(NC(=O)c1ccccc1)C(=O)NC1=NCCS1 (centres unmarked) | 6.66%
CCCN1C(=O)c2cc(C(=O)Nc3ccccc3C)ccc2C1Nc1ccccc1C (centres unmarked) | 10.3%
CCN(/C=N/c1sc2c(c1C#N)CC(C)(C)NC2(C)C)CC | 20.8%
O=C(N/N=C/c1ccccn1)c1cc(-c2ccccc2)nc2ccccc12 | 2.19%
CCOC(=O)c1ccc(S(=O)(=O)NCC(c2ccc(N(C)C)cc2)c2c[nH]c3ccccc23)cc1 (centres unmarked) | 9.97%
O=C(NCCc1ccccn1)c1nc(Cn2cc([N+](=O)[O-])cn2)no1 | 10%
O=C(Cn1c(=O)c(=O)n(Cc2ccccc2)c2ccc(Cl)cc21)Nc1cc(F)ccc1F | 1.47%
COc1ccc(N/N=C(/C(C)=O)N2CCCc3ccccc32)cc1 | 6.79%
CNC(C)C#Cc1c(-c2cc(OC)c(OC)c(OC)c2)noc1C (centres unmarked) | 6.63%
O=S1(=O)CCC(NC(=S)Nc2ccc3ccccc3c2)C1 (centres unmarked) | 11.6%
COc1cccc(CN2CCN(Cc3cccn3-c3cccnc3)CC2CCO)c1 (centres unmarked) | -62.2%
O=C(O)C1=C[C@@H](c2ccc(F)cc2)C[C@@H](OCCCCO)O1 | 11.2%
CC(=O)N/C(=C\c1ccccc1)C(=O)OCc1cc(C)ccc1C | -17.7%
Cc1cc(C)nc(/N=C(\N)Nc2ccc(S(=O)(=O)Nc3nc(C)cc(C)n3)cc2)n1.Cl | 3.6%
Cc1nc2sc(C(c3ccco3)N3CC(C)OC(C)C3)c(O)n2n1 (centres unmarked) | -0.598%
CCOC(=O)c1ccc(NC(=O)CSc2nc3c(c(=O)n2C)SC(C)C3)cc1 (centres unmarked) | 6.66%
COc1ccc(C2=NOC(C(=O)Nc3cccnc3)C2)cc1 (centres unmarked) | 11.3%
Cc1ccccc1NC(=O)CSc1nc2n(n1)CCCCC2 | 13.5%
CSCC[C@@H](C(=O)NCCCCCCCCCCC(=O)N1CCN(C(=O)OC(C)(C)C)CC1)n1cc(CCO)nn1 | 10.6%
CCSc1ncc(CO)c(N)n1 | 5.68%
CCC(C)c1ccc(S(=O)(=O)N2CCN3CCCC3C2)cc1 (centres unmarked) | 10.8%
CC(C)(C)NC(=O)CN1C(=O)/C(=C/c2ccccc2)SC1=S | 4.79%

SMILES | hERG current change (%, negative = inhibition) at 1uM
COc1ccc(CNC(=O)CS(=O)Cc2nc(-c3ccc(OC)c(OC)c3)oc2C)cc1 (centres unmarked) | 10.7%
CCOC(=O)C1CCCCN1Cc1ccc(OC)c(OC)c1 (centres unmarked) | 10.9%
COC(=O)/C=C/c1ccc(OC(=O)OC)c(OC(=O)OC)c1 | 11.6%
COc1ccc(C2C(C(C)=O)=C(C)Nc3ncnn32)c(OC)c1OC (centres unmarked) | 3.37%
COc1ccc(OC)c(NC(=O)C2CCC(CNc3c(N4CCOCC4)c(=O)c3=O)CC2)c1 (centres unmarked) | 13.4%
CC(C)Cc1ccc(C(C)C(=O)OCC(=O)c2c[nH]c3ccccc23)cc1 (centres unmarked) | 15.1%
COC(=O)c1c(NC(=O)c2ccc(Br)o2)sc(C)c1C | 8.15%
Cc1ccc(N2C(S)=C(C#N)C(=O)NC2c2cccs2)cc1 (centres unmarked) | 8.78%
CN(C)CC(C)(C)CNS(=O)(=O)CC12CCC(CC1=O)C2(C)C (centres unmarked) | 9.27%
Cc1c(NCc2cc(Cl)cc(Cl)c2O)c(=O)n(-c2ccccc2)n1C | 9.66%
COc1ccc(-c2c(C)nc3c(-c4ccsc4)cnn3c2N)cc1 | 7.64%
COC(=O)C1ON2OC(C(=O)OC)C(C(=O)OC)C2C1CC(C)=O (centres unmarked) | 16.6%
CC(=O)NCC(O)c1ccc([N+](=O)[O-])cc1 (centres unmarked) | 9.31%
O=C(COc1ccc(Cl)cc1)N1CCN(C2CCCC2)CC1.O=C(O)C(=O)O | -68.4%
C(#Cc1ccc2c(c1)COc1c3ccccc3nn1-2)c1ccccc1 | -5.1%
CCN1CCC(O)(c2ccccc2)C(C(=O)c2ccccc2)C1 (centres unmarked) | 1.95%
Cc1c(Cl)cccc1NC(=O)CN1CCC(C(O)(c2ccccc2)c2ccccc2)CC1 | -0.413%
COC(=O)c1csc(S(=O)(=O)N2CCCCC2)c1OC | 3.59%
CCc1ccc(C2N(c3ccc(OC)cc3)C(=O)C3CCCN32)cc1 (centres unmarked) | 2.49%
NC(=O)Cn1cc(C=C2C(=O)NC(=O)NC2=O)c2ccccc21 | 15%
